The whole screen tested about 120,000 compounds, of which about 5,300 (4.4%) were called active. Inconclusive means that the source gave no clear call. Such entries were picked first, then a sample of the others. The call rests on the fitted dose curve; in most records, active means well fitted inhibition curve with a large enough effect; inconclusive means small, poorly fitted or top-dose-only effect; inactive means no such curve, though single readings can be large or run the other way. Potencies beside an inconclusive call are fits to weak or partial responses and may not hold up.
Test: qHTS Primary assay for Inhibitors of Plasmodium falciparum Dd2 growth in vitro; further: nearly all actives have a fitted effect of over 65% in size;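 on activity, negative = inhibition: plate controls were DMSO vehicle for no effect and reference drug for full effect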
Conditions: P. falciparum Dd2 growth, SYBR Green, 72 h; activity, negative = inhibition: at 28.9 µM (top of the series) unless noted; series mostly up to 28.9 µM
Procedure, shortened: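 Infected erythrocytes (Dd2, 0.3% parasitemia, 2.5% hematocrit final) are added to compound in RPMI-1640/Albumax II medium, grown 72 h at 37C in low oxygen, then lysed with saponin/Triton-X containing SYBR Green and read by fluorescence.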
Potency means the concentration at half of the fitted maximal effect; tags describe the fitted curve by direction and shape.

Compound | activity, negative = inhibition | Potency | outcome
Cc1noc(C)c1S(=O)(=O)N1CCCCCCNC(=O)CC1 | inactive: 3.51% | – | –
c1cc(-c2cnc([C@@H]3COCCN3C3CCCCC3)[nH]2)ccn1 | – | inconclusive: 2.51 µM [inhibitor, partial curve] | –
O=C(c1ccncc1)N1CCC(c2noc(COc3ccc(F)cc3)n2)CC1 | – | – | inactive
CCc1ccc(NC(=O)Cn2c(=O)oc3cc(S(=O)(=O)NCc4ccccc4)ccc32)cc1 | – | inconclusive: 12.6 µM [inhibitor, single point] | –
Cc1ccc(CNC(=O)C2CCCN(c3nnc(-n4c(C)ccc4C)s3)C2)cc1 (stereo unspecified) | – | inconclusive: 11.2 µM [inhibitor, single point] | –
CCN1CC2(CCN(C(=O)CC(Cc3ccccc3)c3ccco3)CC2)CC1=O (stereo unspecified) | inactive: -4.93% | – | –
CCOC(=O)c1cccc(NC(c2nnc(-c3ccccc3)o2)c2ccccc2F)c1 (stereo unspecified) | – | – | inactive
COc1ccc(-c2cc3nc4c(c(=O)n3[nH]2)CN(C(=O)c2ccc(Cc3c(C)noc3C)o2)CC4)cc1 | – | inconclusive: 0.891 µM [inhibitor, full curve, poor fit] | –
Cc1ccc2c(c1)c(=O)c(C(=O)c1ccncc1)cn2CC(=O)Nc1ccccc1Cl | – | – | inactive
CN(Cc1nc(-c2ccccc2)cs1)C(=O)c1cccc(-n2cnnc2)c1 | inactive: -4.67% | – | –
O=C(COc1ccccc1)N1CCC(c2nc(C3CCOCC3)no2)CC1 | inactive: -7.36% | – | –
COc1ccc(-c2ccc3nnc(CNC(=O)COc4cccc(C)c4)n3n2)cc1 | inactive: -5.67% | – | –
CCc1ccc(C2=CC(c3cccc(Br)c3)n3nnnc3N2)cc1 (stereo unspecified) | – | inconclusive: 10 µM [inhibitor, single point] | –
CN(CC1CCOC1)C(=O)NCc1ccc(F)cc1 (stereo unspecified) | inactive: 38.2% [at 5.79 µM] | – | –
O=C(NC1CCCCC1)O[C@@H]1CO[C@H]2[C@@H]1OC[C@@H]2n1nnnc1SCc1ccco1 | – | – | inactive
CC(C)c1noc([C@@H]2C[C@H](NS(=O)(=O)c3ccc(F)cc3)CN2C)n1 | – | – | inactive [at 44.1 µM]
CC(C)(C)C1CCc2c(sc(NC(=O)CCC(=O)O)c2C(=O)Nc2ccccc2C(F)(F)F)C1 (stereo unspecified) | – | inconclusive: 11.2 µM [inhibitor, single point] | –
COCCn1nnnc1C1CC2(CCOCC2)C(=O)N1Cc1cccnc1 (stereo unspecified) | inactive: -10.3% | – | –
COc1ccc(-c2noc(-c3nnn4c3COC(c3ccc(Cl)cc3)C4)n2)cc1OC (stereo unspecified) | – | inconclusive: 0.447 µM [inhibitor, full curve, poor fit] | –
O=C(N[C@@H]1CCC[C@@H]1C(=O)NCCc1ccccc1)c1ccncc1 | inactive: 14.2% | – | –
COc1cccc(-c2cn3c(n2)N(C(=O)c2cccs2)CCC3)c1 | – | inconclusive: 10 µM [inhibitor, partial curve, poor fit] | –
O=[S+]1([O-])NC2(CCN(Cc3ccccc3C(F)(F)F)C2)CNc2ccccc21 (stereo unspecified) | – | inconclusive: 3.98 µM [inhibitor, single point] | –
COc1ccc(CCNC(=O)C2CCN(c3ncnc4c3nc3n4CCCCC3)CC2)c(OC)c1 | – | inconclusive: 12.6 µM [inhibitor, single point] | –
CCC(C)NC(=O)C(NC(=O)c1cccc(OC)c1)C1CCN(C(=O)c2cccc(C)c2)CC1 (stereo unspecified) | – | – | inactive

Compound | activity, negative = inhibition | Potency | outcome
CCc1cccc(NC(=O)CN2C=C(C(=O)OC)C(C)=NS2(=O)=O)c1 | inactive: 62.3% | – | –
CC1(c2ccccc2)N(Cc2ccccc2)C(=O)OC12CCN(Cc1cccnc1)CC2 (stereo unspecified) | – | inconclusive: 1.78 µM [inhibitor, full curve, poor fit] | –
Cn1ccc(CN2CCn3c(nn(-c4ccc(F)cc4F)c3=O)C2)c1 | – | active: 8.91 µM | –
CCC1CCCCN1C(=O)CSc1n[nH]c(-c2ccccc2Cl)n1 (stereo unspecified) | inactive: -4.23% | – | –
COc1ccccc1Nc1c2c(nc3ccc(NC(=O)c4cccc(OC)c4OC)cc13)CCCC2 | – | active: 5.62 µM | –
O=C(Nc1ccc(C(F)(F)F)cc1)C1CCCN(S(=O)(=O)c2cccc3cccnc23)C1 (stereo unspecified) | – | active: 11.2 µM | –
COc1ccc(CN2CCNc3cnc(Nc4cccnc4)cc3C2)cc1O | inactive: 0.976% [at 44.1 µM] | – | –
COc1ccccc1-c1nc(C(=O)N2CCN(c3ncccn3)CC2)n2ccncc12 | – | inconclusive: 11.2 µM [inhibitor, partial curve, poor fit] | –
CC(=O)NC1(C)CCN(Cc2cccc(-c3ccc4c(ccn4C)c3)c2)C1 (stereo unspecified) | – | inconclusive: 14.1 µM [inhibitor, single point] | –
COc1ccc(-c2nnc([C@H]3CCN(c4ncccn4)C3)o2)cc1 | – | inconclusive: 1 µM [inhibitor, partial curve] | –
CN(Cc1ccc(Cl)cc1)Cc1ccccc1C(F)(F)F | inactive: 2.55% [at 44.1 µM] | – | –
COC(=O)c1ccc2c(=O)n(CCCCCC(=O)N3CCN(c4cc(Cl)ccc4C)CC3)c(=O)[nH]c2c1 | – | active: 10 µM | –
CS(=O)(=O)N1CCC(C2CCN(Cc3ccc(Br)o3)C2)CC1 (stereo unspecified) | – | active: 4.47 µM | –
COc1cc(OC)c(NC(=O)N2CCc3c(sc4c3CCCC4)C2c2ccccc2)cc1Cl (stereo unspecified) | – | inconclusive: 11.2 µM [inhibitor, single point] | –
CCOc1ccc(NC(=O)c2cc3c(s2)-c2ccccc2OC3)cc1 | – | inconclusive: 8.91 µM [inhibitor, single point] | –
Brc1ccc(-c2ccnc3nc(-c4ccco4)nn23)s1 | – | inconclusive: 8.91 µM [inhibitor, single point] | –
CN(C)C[C@@H]1CN(C2CCOCC2)C[C@H]1NC(=O)c1n[nH]c2ccccc12 | – | inconclusive: 10 µM [inhibitor, partial curve, poor fit] | –
Cc1cc(C)cc(C2(CNC(=O)C3NCCc4[nH]cnc43)CCCC2)c1 (stereo unspecified) | – | inconclusive: 20 µM [inhibitor, single point] | –
COCCC(=O)N1CCC2(CC1)CC(N(Cc1ccc(F)cc1)C1CC1)CCO2 (stereo unspecified) | – | inconclusive: 8.91 µM [inhibitor, single point] | –
CCC(=O)N1CCc2nc(N3CCN(C(=O)CCOC)CC3)sc2C1 | inactive: 18.1% | – | –
O=C(NC1CCCN(c2cc(-c3ccc(Cl)cc3)[nH]n2)C1)c1cccs1 (stereo unspecified) | – | inconclusive: 2.51 µM [inhibitor, partial curve, poor fit] | –
CCN1c2cc(C(=O)Nc3ccc(OC(F)(F)F)cc3)ccc2C(=O)N2CCCCCC21 (stereo unspecified) | – | inconclusive: 3.98 µM [inhibitor, single point] | –
COc1ccc(Cn2c(C3CCN(C(=O)Cc4cccc(F)c4)CC3)n[nH]c2=O)cc1 | – | inconclusive: 17.8 µM [inhibitor, single point] | –
CN(Cc1cccc(C(F)(F)F)c1)C(=O)c1ccccc1Cl | – | inconclusive: 22.4 µM [inhibitor, single point] | –

Compound | activity, negative = inhibition | Potency | outcome
CCn1ccc2cc(S(=O)(=O)N3CCCN(C(=O)Nc4ccc(C)c(F)c4)CC3)ccc21 | – | inconclusive: 11.2 µM [inhibitor, single point] | –
O=C(C1CCCCC1)N1CC[C@H](c2nc3ccc(C(F)(F)F)cc3[nH]2)C1 | – | – | inactive [at 44.1 µM]
CCOC(=O)c1ccc(NC(=O)CSc2nccn2-c2ccc(OCC)cc2)cc1 | – | inconclusive: 7.08 µM [inhibitor, partial curve] | –
COc1cccc([S+](=O)([O-])N2CCC(C(=O)O)(c3ccccc3)CC2)c1 | inactive: 6.64% | – | –
COc1ccc(Cl)cc1C(=O)N1CCC(c2n[nH]c(=O)n2-c2ccccc2)CC1 | inactive: -22.1% | – | –
O=C(NCc1ccccc1)c1ccc2c(c1)N(Cc1ccc(F)cc1)CCS2 | – | inconclusive: 17.8 µM [inhibitor, single point] | –
Fc1ccc(OC2CN(CC3CC3)C2)c(F)c1 | inactive: 44.6% [at 44.1 µM] | – | –
O=C(NC1CCCC1)c1ccc2c(c1)N(S(=O)(=O)c1ccccc1)CC2 | – | – | inactive
CCCN1CCN(C(=O)c2ccc3c(c2)n(CC)c(=O)c2ccnn23)CC1 | – | – | inactive
COCCOc1ccc2c(n1)CCN(C(=O)c1cccc(OC)c1)C2 | – | inconclusive: 4.47 µM [inhibitor, partial curve, poor fit] | –
COc1ccc(C)cc1NC(=O)Cn1cccc1-c1nc(-c2ccc(F)cc2)no1 | – | inconclusive: 14.1 µM [inhibitor, partial curve, poor fit] | –
CO[C@H]1[C@H](NC(=O)c2sccc2Cl)c2ccccc2C12CCNCC2 | – | inconclusive: 12.6 µM [inhibitor, single point] | –
COc1ccc(N2CCN(C(=O)c3cc4c(s3)CN(C3CCCC3)C4)CC2)cc1 | – | inconclusive: 17.8 µM [inhibitor, single point] | –
COCC1CN(C(=O)CC2CCN(C(C)=O)CC2)CC12CCNCC2 (stereo unspecified) | inactive: 17.8% | – | –
O=C(NCc1ccnc2[nH]ccc12)c1cccc(Br)c1 | – | inconclusive: 22.4 µM [inhibitor, single point] | –
O=S1(=O)CCC(Cc2nc(-c3ccccn3)nn2Cc2ccccc2)C1 (stereo unspecified) | inactive: -15.3% | – | –
O=C(NC1CC1)[C@@H]1CN(Cc2ccc(Br)cc2)C[C@H]1CO | – | inconclusive: 10 µM [inhibitor, partial curve] | –
CN(C(=O)NCc1ccc(F)cc1)C1CCc2nn(CC3CC3)c(=O)n2CC1 (stereo unspecified) | inactive: -6.73% | – | –
Cc1ccccc1C(=O)N1CCC(c2nn(-c3ccccc3)c(=O)[nH]2)CC1 | inactive: -26.2% | – | –
Cc1cc(C)c([S+](=O)([O-])c2nnn3c2nc(N2CCOCC2)c2ccccc23)c(C)c1 | – | active: 8.91 µM | –
CCN1CCN(CCCNC(=O)C2N(c3ccc(OC)cc3)C(=O)C23CCCCC3)CC1 (stereo unspecified) | – | inconclusive: 17.8 µM [inhibitor, partial curve, poor fit] | –
CNC(=O)[C@@H]1CN(C(=O)c2ccc(C)nc2)C[C@H]1CO | – | inconclusive: 3.98 µM [inhibitor, single point] | –
O=C(C1CC1)N1CC(Oc2ccccc2-c2nc(-c3cnccn3)no2)C1 | – | active: 7.94 µM | –
